# Reference: PMC4336329 (PLoS ONE, 2015)
# Among all 310,000 compounds or so, about 14,000 (4.5%) showed an effect of 50% or more. Effects have a minus sign here. Some of the results follow.
# Molecular target: human ether-à-go-go-related gene (hERG) potassium channel (human, UniProt Q12809)
# Assay: primary screen, population patch clamp on CHO cells stably expressing hERG
# 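Further: peak tail current of the secondary pulse compared with the same well before compound.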
# Chain of human ether-à-go-go-related gene (hERG) potassium channel (Q12809 whole entry, looked up): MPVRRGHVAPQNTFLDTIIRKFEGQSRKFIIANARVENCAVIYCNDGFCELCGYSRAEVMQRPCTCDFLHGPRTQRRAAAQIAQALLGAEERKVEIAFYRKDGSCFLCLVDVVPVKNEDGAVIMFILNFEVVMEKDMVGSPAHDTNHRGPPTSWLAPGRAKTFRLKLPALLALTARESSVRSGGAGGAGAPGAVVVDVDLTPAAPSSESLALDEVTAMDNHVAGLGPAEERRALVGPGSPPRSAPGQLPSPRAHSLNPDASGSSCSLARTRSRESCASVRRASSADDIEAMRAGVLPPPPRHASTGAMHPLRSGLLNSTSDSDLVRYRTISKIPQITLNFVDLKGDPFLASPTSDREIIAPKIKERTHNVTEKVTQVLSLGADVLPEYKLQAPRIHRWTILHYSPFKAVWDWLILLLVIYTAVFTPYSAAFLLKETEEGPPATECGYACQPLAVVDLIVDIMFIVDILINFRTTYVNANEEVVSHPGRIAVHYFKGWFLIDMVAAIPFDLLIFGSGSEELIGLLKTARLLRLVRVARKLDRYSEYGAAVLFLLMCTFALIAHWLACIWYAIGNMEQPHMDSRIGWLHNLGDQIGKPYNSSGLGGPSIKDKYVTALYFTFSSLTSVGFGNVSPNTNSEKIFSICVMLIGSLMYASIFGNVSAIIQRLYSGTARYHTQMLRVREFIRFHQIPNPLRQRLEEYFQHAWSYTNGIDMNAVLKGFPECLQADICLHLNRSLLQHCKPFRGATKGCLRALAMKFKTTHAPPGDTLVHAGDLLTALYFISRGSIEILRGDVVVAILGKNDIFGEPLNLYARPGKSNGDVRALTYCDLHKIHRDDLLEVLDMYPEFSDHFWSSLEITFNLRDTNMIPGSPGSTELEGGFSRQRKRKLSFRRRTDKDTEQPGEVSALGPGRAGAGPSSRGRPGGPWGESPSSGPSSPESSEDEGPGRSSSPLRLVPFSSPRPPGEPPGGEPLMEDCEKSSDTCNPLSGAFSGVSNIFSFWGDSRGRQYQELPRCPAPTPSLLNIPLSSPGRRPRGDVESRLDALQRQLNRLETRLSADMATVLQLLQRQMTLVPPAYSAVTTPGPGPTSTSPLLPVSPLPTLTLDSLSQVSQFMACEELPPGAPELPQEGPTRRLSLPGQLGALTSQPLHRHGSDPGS
row,Structure (SMILES),"hERG current change (%, negative = inhibition) at 10uM [%]"
1,COc1cccc(NC(=S)NC(C)c2ccc(OC)c(OC)c2)c1 (centres unmarked),-4.17
2,CCOc1ccc2c(c1)[N+](C)(C)C(C)(C)C=C2C.[I-],9.24
3,NC(=O)c1c(NC(=O)c2ccc(S(=O)(=O)N3CCOCC3)cc2)sc2c1CCCCC2,-4.43
4,CCOC(=O)c1ccc(S(=O)(=O)N2CCN(CC3CC=CCC3)CC2)cc1.O=C(O)C(=O)O (centres unmarked),-3.89
5,Oc1ccccc1/C=N/NC(=S)NC1CC2C=CC1C2 (centres unmarked),4
6,O=C(Cn1nnc(-c2ccccc2)n1)NCc1ccccc1,-9.05
7,Cc1cccc(C(=O)n2c(=S)nc3cc(C)ccn32)c1,19.5
8,COc1ccc(C(=O)NCC(=O)N/N=C/c2cccnc2)cc1,18.1
9,CCOc1ccc(Br)cc1S(=O)(=O)N1CC(C)OC(C)C1 (centres unmarked),-37.4
10,Cc1ccc(/C(N)=N/OC(=O)CSc2ccccc2)cc1,-5.49
11,CCN(CC)S(=O)(=O)c1ccc(NC(=O)[C@@H](NC(=O)c2cc(OC)cc(OC)c2)C(C)C)cc1,7.73
12,Cc1ccc(OCC(=O)Nc2ccccc2-c2ccccc2NC(=O)COc2ccc(C)cc2)cc1,3.47
13,O=C1CC(NCCC2=CCCCC2)C(=O)N1c1cccc(Cl)c1Cl (centres unmarked),4.74
14,COC(=O)CSc1ccccc1C(=O)OC,10
15,CC1(C)C2CC[C@]3(C)C(CC=C4[C@@H]5C[C@@](C)(CO)[C@@H](O)C[C@]56C[C@@H](OC6=O)[C@]43C)[C@@]2(C)CC[C@@H]1O (some centres unmarked),18.8
16,CCN(CC)S(=O)(=O)c1ccc(C(=O)NCCOC(=O)c2ccc(F)cc2F)cc1,-47.1
17,CCCn1c(N)c(N(CCOC)C(=O)CSCC(=O)Nc2cccc(C)c2)c(=O)[nH]c1=O,1.73
18,CC(=O)Nc1ccc(NC(=O)CSc2nnc3c4ccccc4n(C)c3n2)cc1,4.16
19,CCOc1ccc(NC(=O)CN2CCN(CC(=O)Nc3ccccc3OC)CC2)cc1,-74.1

row,Structure (SMILES),"hERG current change (%, negative = inhibition) at 10uM [%]"
1,O=C(Cn1c(/C=C/c2ccccc2)nc2ccccc21)Nc1ccc(F)cc1,6.64
2,CN(C(=O)CCc1nc2ccccc2c(=O)[nH]1)C1CCS(=O)(=O)C1 (centres unmarked),5.61
3,CCCOc1cccc(C(=O)Nc2ccc(CN3CCOCC3)cc2)c1,-20
4,O=C(c1ccco1)N1CCN(c2cccc(Cl)c2)CC1,-11.5
5,O=C(CSc1n[nH]c(-c2ccccc2)n1)Nc1ccc(F)cc1F,1.49
6,CCCOC(=O)C(C)Sc1n[nH]c(=O)[nH]c1=O (centres unmarked),-6.87
7,Cc1ccc2c(c1)N(S(=O)(=O)c1ccc(CN3C(=O)c4cccnc4C3=O)s1)CCO2,-3.67
8,O=C(CN1C(=O)NC2(CCCC2)C1=O)NCCc1ccc(Cl)cc1Cl,-8.31
9,Cc1[nH]c2ccccc2c1/C=N/Nc1ccc(F)cc1F,10.4
10,COCCCNC(=O)CC1C(=O)N(Cc2ccccc2)C(C)c2nc3ccccc3n21 (centres unmarked),5.91
11,COc1ccc(NC(=O)C2OC3OC(C)(C)OC3C3OC(C)(C)OC23)cc1 (centres unmarked),1.05
12,COc1ccc(-c2cc(C(=O)OCC(=O)N(C)C3CCS(=O)(=O)C3)c3ccccc3n2)cc1OC (centres unmarked),-10
13,O=C(COc1ccccc1)NCCn1ccc2ccccc21,-6.77
14,COc1cc(OC)cc(C(=O)Nc2cccc(C(C)=O)c2)c1,5.58
15,COc1cc(C2N(C)CCC3(OCCO3)C2(C)C)cc(OC)c1OC (centres unmarked),-23.9
16,CN(C)c1cccc(C(=O)N2CCCC(CCC(=O)N3CCN(c4ccccn4)CC3)C2)c1 (centres unmarked),-0.816
17,CCn1c(O)c(C=Nc2ccccc2)oc1=S,-2.84
18,O=[N+]([O-])c1cccn2cc(-c3ccc(Br)cc3)nc12,-2.94
19,Cc1cc(C(=O)N2CCCC(N3CCN(c4ccc(F)cc4)CC3)C2)no1 (centres unmarked),-37.7

row,Structure (SMILES),"hERG current change (%, negative = inhibition) at 10uM [%]"
1,Cc1cc2cc3c(cc2nc1SCc1ccc(C(=O)O)cc1)OCCO3,11.5
2,C/[N+]([O-])=C\C1C(=O)CCCC1=O,16.1
3,CCCCc1ccc(NC(=O)CC(C)(C)C)cc1,-9.28
4,COc1cccc(CNC(=O)c2ccc(COc3ccccc3)cc2)c1,24
5,Cc1cc(OC(C)C)nc(NCc2ccccc2)n1,-3.54
6,COc1ccc(-c2nn(-c3ccccc3)cc2/C=N/N2C(=O)CSC2=S)cc1,-6.34
7,O=C(CCl)N1c2ccccc2SCC1c1ccccc1 (centres unmarked),30.7
8,Cc1cccc(-c2nc3c(c(SCC(=O)N4CCOCC4)n2)CCCC3)c1,8.13
9,O=C(O)C(=O)O.OC(COCc1ccco1)CN1CCN(c2ccccc2)CC1 (centres unmarked),-24.8
10,CC(=O)NC1=NN(C(C)=O)C(C)(c2ccc(Br)cc2)S1 (centres unmarked),-4.33
11,CC1(C)CC(=O)c2cc(O)ccc2O1,2.76
12,CCN(CC(=O)Nc1ccc(NC(C)=O)cc1)C(=O)c1cccc(Oc2ccccc2)c1,-1.76
13,O=C(CCc1nc2ccccc2[nH]1)Nc1ccc2c(c1)OCCO2,5.35
14,COC(=O)C1=C(c2cccc(C#N)c2)C[C@@H]2CC[C@H]1N2C(=O)N1CCCCC1,-5.23
15,O=C(CSc1nnc(CNc2ccc(F)cc2)o1)c1ccccc1,2.6
16,COc1ccc(C2c3ccc4ccccc4c3Oc3ncn(CCN(C)C)c(=N)c32)cc1 (centres unmarked),-77.2
17,O=S(=O)(c1ccccc1)N(CC(O)COc1ccccc1)c1ccccc1 (centres unmarked),-26.6
18,N#Cc1c(NC(=O)CN2C(=O)c3ccccc3C2=O)oc(-c2ccccc2)c1-c1ccccc1,-19.4
